The IC50 comes from the fitted curve, where viability falls to half of the control; a limit (>, <) means that the fit lies beyond the doses tested. AUC, from the same fit, is the share of area under the viability curve across the 256-fold dose range: 1 means no effect, lower means more sensitive. For some assays here: The top dose, if marked as inferred, is not printed in the source and was worked back from the curve model.
Experiments:
Experiment in all cases: Viability of human cancer cell lines after 72 h of drug (GDSC screen)
[1] = compound: CC1(C)CCC(c2ccc(Cl)cc2)=C(CN2CCN(c3ccc(C(=O)NS(=O)(=O)c4ccc(N[C@H](CCN5CCOCC5)CSc5ccccc5)c(S(=O)(=O)C(F)(F)F)c4)cc3)CC2)C1 [ABT-263]; conditions: top dose 2 µM; top dose inferred
Protocol: (§1)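 Human cancer cell lines in 384-well plates, medium with 10% serum, drug for 72 h over a 256-fold dose range (nine 2-fold or five 4-fold steps up to the top dose). Adherent lines were fixed and stained with the nucleic acid dye Syto60, suspension lines read with resazurin; signal relative to control wells, capped at 0 and 100%. One two-parameter sigmoid per drug and line, fitted in a mixed model over all curves with the slope shared within a line.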

[2] = compound: COc1cc(/C=C/C(=O)N2CCC=CC2=O)cc(OC)c1OC [piperlongumine]; conditions: top dose 10 µM
Protocol: as §1

[3] = compound: Cn1cc(/C=C2\C(=O)Nc3cccnc32)c2ccccc21 [GW 441756]; conditions: top dose 2 µM; top dose inferred
Protocol: as §1

[4] = compound: CC(=O)Nc1nc(C)c(-c2ccc(Cl)c(S(=O)(=O)NCCO)c2)s1 [PIK-93]; conditions: top dose 20 µM
Protocol: as §1

## SCC90 (head and neck, adherent)
[1]
  AUC: 0.916
  IC50: > 2000 nM
[2]
  AUC: 0.816
  IC50: 8790 nM
[3]
  AUC: 0.837
  IC50: > 2000 nM

## JEKO-1 (B-cell lymphoma, suspension)
[1]
  AUC: 0.792
  IC50: 861 nM
[2]
  AUC: 0.747
  IC50: 3080 nM
[3]
  AUC: 0.987
  IC50: > 2000 nM

## CRO-AP2 (B-cell lymphoma, suspension)
[1]
  AUC: 0.983
  IC50: > 2000 nM
[2]
  AUC: 0.574
  IC50: 965 nM
[3]
  AUC: 0.986
  IC50: > 2000 nM

## CML-T1 (chronic myeloid leukaemia, suspension)
[1]
  AUC: 0.539
  IC50: 156 nM
[2]
  AUC: 0.814
  IC50: 4330 nM
[3]
  AUC: 0.991
  IC50: > 2000 nM

## PWR-1E (prostate, adherent)
[1]
  AUC: 0.969
  IC50: > 2000 nM
[2]
  AUC: 0.757
  IC50: 3430 nM

## H290 (mesothelioma, adherent)
[1]
  AUC: 0.971
  IC50: > 2000 nM
[2]
  AUC: 0.785
  IC50: 3900 nM
[3]
  AUC: 0.897
  IC50: > 2000 nM

## JHU-029 (head and neck, adherent)
[1]
  AUC: 0.87
  IC50: > 2000 nM
[2]
  AUC: 0.655
  IC50: 1870 nM
[3]
  AUC: 0.902
  IC50: > 2000 nM

## HCC-366 (non-small cell lung carcinoma, adherent)
[1]
  AUC: 0.727
  IC50: 568 nM
[2]
  AUC: 0.885
  IC50: > 10000 nM
[3]
  AUC: 0.96
  IC50: > 2000 nM

## IGROV-1 (ovary, adherent)
[1]
  AUC: 0.976
  IC50: > 2000 nM
[2]
  AUC: 0.82
  IC50: 9730 nM
[3]
  AUC: 0.93
  IC50: > 2000 nM

## BCPAP (thyroid, adherent)
[4]
  AUC: 0.674
  IC50: 3620 nM
[1]
  AUC: 0.919
  IC50: > 2000 nM
[2]
  AUC: 0.733
  IC50: 2680 nM

## TC-YIK (cervix, suspension)
[1]
  AUC: 0.49
  IC50: 118 nM
[2]
  AUC: 0.774
  IC50: 3420 nM
[3]
  AUC: 0.991
  IC50: > 2000 nM

## DIFI (large intestine, adherent)
[1]
  AUC: 0.857
  IC50: 1730 nM
[2]
  AUC: 0.859
  IC50: 8810 nM
[3]
  AUC: 0.959
  IC50: > 2000 nM

## NCI-H929 (myeloma, suspension)
[1]
  AUC: 0.952
  IC50: > 2000 nM
[2]
  AUC: 0.803
  IC50: 4120 nM
[3]
  AUC: 0.982
  IC50: > 2000 nM

## SK-MEL-28 (melanoma, adherent)
[4]
  AUC: 0.859
  IC50: 16000 nM
[1]
  AUC: 0.928
  IC50: > 2000 nM
[2]
  AUC: 0.779
  IC50: 4010 nM

## NCC010 (kidney, adherent)
[1]
  AUC: 0.892
  IC50: > 2000 nM
[2]
  AUC: 0.82
  IC50: 6300 nM
[3]
  AUC: 0.902
  IC50: > 2000 nM

## MKN1 (stomach, adherent)
[4]
  AUC: 0.88
  IC50: > 20000 nM
[1]
  AUC: 0.981
  IC50: > 2000 nM
[2]
  AUC: 0.732
  IC50: 2980 nM

## Hep 3B2_1-7 (liver, adherent)
[1]
  AUC: 0.688
  IC50: 420 nM
[2]
  AUC: 0.703
  IC50: 2330 nM
[3]
  AUC: 0.98
  IC50: > 2000 nM

## TCCSUP (bladder, adherent)
[4]
  AUC: 0.949
  IC50: > 20000 nM
[1]
  AUC: 0.969
  IC50: > 2000 nM
[2]
  AUC: 0.745
  IC50: 3540 nM

## BALL-1 (B-cell leukaemia, suspension)
[1]
  AUC: 0.389
  IC50: 67.2 nM
[2]
  AUC: 0.862
  IC50: 5020 nM
[3]
  AUC: 0.997
  IC50: > 2000 nM

## BT-549 (breast, adherent)
[1]
  AUC: 0.978
  IC50: > 2000 nM
[2]
  AUC: 0.65
  IC50: 1930 nM
[3]
  AUC: 0.864
  IC50: > 2000 nM

## NCI-H2085 (lung adenocarcinoma, adherent)
[4]
  AUC: 0.828
  IC50: 13700 nM
[1]
  AUC: 0.87
  IC50: > 2000 nM
[2]
  AUC: 0.783
  IC50: 4570 nM

## SK-LU-1 (lung adenocarcinoma, adherent)
[4]
  AUC: 0.912
  IC50: > 20000 nM
[1]
  AUC: 0.893
  IC50: > 2000 nM
[2]
  AUC: 0.8
  IC50: 6430 nM

## U-266 (myeloma, semi-adherent)
[1]
  AUC: 0.976
  IC50: > 2000 nM
[2]
  AUC: 0.828
  IC50: 9410 nM
[3]
  AUC: 0.983
  IC50: > 2000 nM

## VM-CUB-1 (bladder, adherent)
[4]
  AUC: 0.887
  IC50: > 20000 nM
[1]
  AUC: 0.938
  IC50: > 2000 nM
[2]
  AUC: 0.729
  IC50: 2720 nM

## CHP-134 (neuroblastoma, suspension)
[4]
  AUC: 0.836
  IC50: 18700 nM
[1]
  AUC: 0.525
  IC50: 149 nM

## MOLM-16 (acute myeloid leukaemia, suspension)
[1]
  AUC: 0.586
  IC50: 208 nM
[2]
  AUC: 0.749
  IC50: 2910 nM
[3]
  AUC: 0.956
  IC50: > 2000 nM

## MOLT-16 (T-cell lymphoblastic leukaemia, suspension)
[1]
  AUC: 0.775
  IC50: 636 nM
[2]
  AUC: 0.624
  IC50: 1270 nM
[3]
  AUC: 0.992
  IC50: > 2000 nM

## Jurkat (T-cell leukaemia, suspension)
[1]
  AUC: 0.94
  IC50: > 2000 nM
[2]
  AUC: 0.809
  IC50: 4100 nM
[3]
  AUC: 0.993
  IC50: > 2000 nM

## SU-DHL-10 (B-cell lymphoma, suspension)
[4]
  AUC: 0.261
  IC50: 330 nM
[1]
  AUC: 0.998
  IC50: > 2000 nM
[2]
  AUC: 0.939
  IC50: 8330 nM

## KARPAS-1106P (B-cell lymphoma, suspension)
[1]
  AUC: 0.974
  IC50: > 2000 nM
[2]
  AUC: 0.837
  IC50: 5100 nM
[3]
  AUC: 0.989
  IC50: > 2000 nM

## EW-22 (Ewing sarcoma, adherent)
[1]
  AUC: 0.698
  IC50: 440 nM
[2]
  AUC: 0.851
  IC50: 7180 nM
[3]
  AUC: 0.98
  IC50: > 2000 nM

## NCI-H835 (lung carcinoid, suspension)
[1]
  AUC: 0.67
  IC50: 362 nM
[2]
  AUC: 0.819
  IC50: 5330 nM
[3]
  AUC: 0.988
  IC50: > 2000 nM

## CAL-54 (kidney, adherent)
[4]
  AUC: 0.919
  IC50: > 20000 nM
[1]
  AUC: 0.958
  IC50: > 2000 nM
[2]
  AUC: 0.81
  IC50: 6230 nM

## MDA-MB-157 (breast, adherent)
[4]
  AUC: 0.979
  IC50: > 20000 nM
[1]
  AUC: 0.91
  IC50: > 2000 nM
[2]
  AUC: 0.788
  IC50: 4520 nM

## VMRC-LCD (lung adenocarcinoma, adherent)
[1]
  AUC: 0.957
  IC50: > 2000 nM
[2]
  AUC: 0.814
  IC50: 4350 nM
[3]
  AUC: 0.978
  IC50: > 2000 nM

## GAMG (glioma, adherent)
[4]
  AUC: 0.729
  IC50: 5830 nM
[1]
  AUC: 0.906
  IC50: > 2000 nM
[2]
  AUC: 0.812
  IC50: 5680 nM

## MFE-319 (endometrium, adherent)
[4]
  AUC: 0.884
  IC50: > 20000 nM
[1]
  AUC: 0.884
  IC50: > 2000 nM
[2]
  AUC: 0.826
  IC50: 5820 nM
